Whole data set: some 33,000 sequences, median “E-score (-0.5 to 0.5)” near -0.016, cut for the highest 2% near 0.31. The list shows a part of the results.
Biological target: Cst6 (UniProt P40535)
Test: PBM E-score (8-mer binding enrichment) (E-score (-0.5 to 0.5)); higher = stronger / more preferred TF binding; most listed sequences are background and not binding sites
Settings: protein concentration: 200 nM; construct: GST-DNA-binding domain
Outline: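 Yeast transcription factors, full-length or as DNA-binding domains, were expressed with a GST tag using PURExpress in vitro transcription/translation. At about 100-200 nM they were applied to universal all-10-mer Agilent arrays, double-stranded by primer extension on fresh or once-stripped slides. Fluorescent anti-GST detected bound protein, and masliner normalised the scans. E-scores for ungapped eight-base words, pooled with reverse complements, came from the Universal PBM Analysis Suite.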

Sequence	PBM E-score
CGACGCCC	-0.0503
CATCAGCC	0.0596
GATCAAGA	0.117
AACGCGGG	0.0507
AATGAAAC	0.171
CACCGAGG	-0.133
AAACTCGG	-0.086
ACCTCCTG	-0.224
ACCCTGGG	-0.181
AACCGTGG	-0.0651
ACCCAGTA	-0.244
CCGCGCGC	0.151
AATAGAGA	0.0788
GCATAGAA	0.0408
CAAGCGAG	-0.00525
CATCCCCA	-0.078
ACGAACGG	0.225
GTGGAGTA	0.0574
ACGTCTCG	-0.0115
CATTAATA	0.212
AGAGTCCC	-0.249
ATGTGCAC	-0.0556
AAGCAGCT	-0.112
CTGCTGCC	-0.173
GGTAGACA	-0.0354

Sequence	PBM E-score
ATCTCTTA	0.117
AGAATTAC	0.2
GCTAGAAA	0.172
GAATGTCA	0.206
CTCACACA	-0.123
CCAGACCA	-0.121
ATGGGAGC	-0.193
TAGCCATA	-0.00169
ACGCTAGC	-0.254
CAACTGGA	-0.0145
AAGAATTG	0.182
GATGCGCC	0.11
TGAGCCAA	-0.0555
GACACACC	-0.0486
CTATGCAC	-0.221
ACAAATTA	0.265
ATGGGTCA	-0.0766
AGTGCATA	-0.0588
ATCTCCCC	-0.298
CAACCATC	-0.16
GGTTCGAC	-0.0824
ACTACGCA	-0.0194
CAGAGAGC	-0.216
AACGGGCC	-0.0834
TGACACAA	0.253

Sequence	PBM E-score
AATGTGTC	0.1
CCATCCCA	-0.0649
CGTTCTCA	-0.0164
CCCTTAGA	-0.181
AAGCGCGG	-0.0171
ATGAGGAA	0.122
CCAAGCGA	-0.309
CATGCGGC	0.33
ATAGCAAA	0.133
GTATGAGA	-0.00664
GCAAGCCC	-0.15
ATACTGCG	-0.131
AGTCACAA	0.192
CATGGTCC	-0.0826
CCCGACAC	-0.299
CAAGTTGG	0.0964
ATCCCATA	-0.0649
CGGAAAAG	-0.0314
AACCAGCA	-0.228
CTAGAGCC	-0.145
CCACAACC	0.0117
AAGAGAGT	-0.137
GCGTGAGA	0.13
ATTTTTGC	0.266
AACCTTTC	-0.233

Sequence	PBM E-score
ATTGTCGG	-0.0558
CATCCTGC	-0.0651
GCGATTAC	0.184
GACCGCGA	-0.138
CCACTCAC	-0.085
CCTTAATA	0.0735
GATGCATA	0.0137
ACTGGTGA	-0.0583
CCCCCCCA	-0.339
CACTCTCC	-0.189
CAAGATAG	-0.0558
GGTACAGA	0.00161
CCTCCCGC	-0.155
ACAGGACC	-0.205
GCGAGACC	-0.0721
ACTTGTTC	-0.0606
GCTGACCA	-0.124
GAAGAACC	-0.119
AATGAATT	0.245
AGCACGAG	-0.109
GGTATCAA	-0.133
CGAGAACG	0.0398
AGGGATCC	-0.409
ATGTCGCG	0.118
CAGGTACC	-0.165

Sequence	PBM E-score
AGTCTGCG	-0.341
GAAGCGTC	0.0576
GAACGGGC	-0.257
CCTCCTCG	0.094
CACGCAGA	-0.0519
TATGGGAA	-0.0855
AAAAACGA	0.214
ACTACAAC	0.0641
TCTCCGCA	-0.103
AGCATCCC	-0.29
CACATGGG	-0.234
AGACCGAT	-0.0796
GTTGGGGA	-0.141
AGTGGGTA	-0.282
CAAATTAG	0.147
AAATGTTA	0.182
GGGCTGCA	-0.219
GGCTGTAC	-0.17
ATCGACCC	0.00171
AAGGATGG	0.0503
GGTAATGA	0.213
AGGTCAAC	-0.0368
CCTGGCCA	-0.276
ATCGTCGA	-0.0032
GCTAGAAC	-0.216

Sequence	PBM E-score
CGTCCGCC	-0.111
GATGCGGA	0.0439
CCTGGAAC	-0.0991
GGGTGCAC	-0.191
CCAGATCA	0.181
GTCTCTCA	-0.0353
ATAATACC	0.147
CTGATTTC	0.195
CAGGGCCA	-0.213
AACGCTAT	0.00602
ACGATCCT	-0.118
CTCAGCCA	-0.148
TAATAAAA	0.316
GCCAAAAC	0.00644
CACACCCG	-0.0928
CGAATGCG	0.03
ACTGTCCC	-0.222
AAGAGGGC	-0.0691
TAGTCGCA	-0.167
AGACAGTC	-0.214
AACTGAAG	0.0725
TCAAGGCA	-0.152
GCAATGGC	-0.239
CCTCGGAG	-0.085
AGCCAGAA	-0.0481

Sequence	PBM E-score
AGGTCCAA	-0.272
CAGGATAA	0.0316
AACGGATT	0.269
CAATATTC	-0.0581
CCAGGAAC	-0.362
ATGCGGGG	-0.0792
CTCATTTA	0.141
GCTTGAAC	0.0764
CATCAGAG	0.129
CCGGCGGA	-0.0852
ACCGATAG	-0.104
CCGGACCG	-0.165
TACAAAGA	0.0617
AGCAATCC	-0.179
ACGTTGTA	0.141
GGGACACC	-0.314
CAAGTGCC	0.0401
CTCGGGAC	-0.143
ACTGGGCG	-0.235
ACGGTGCA	-0.0869
TACTGTGA	0.00812
ATAACCAG	0.144

From the supplement of paper PMC3334620
